Consider 61 compounds from PubChem BioAssay AID1963576 (National Center for Advancing Translational Sciences (NCATS), 2024).

Molecules are shown by their SMILES. The campaign covered roughly 46,000 compounds. About 60 (0.1%) were called active. Roughly 3% stayed inconclusive and do not appear here. Calls follow the shape of the dose curve; as a rule, active = well fitted inhibition curve with a large enough effect; inconclusive = small, poorly fitted or top-dose-only effect; inactive = no such curve, though single readings can be large or run the other way. The list shows a part of the results.

This assay can be described thus: Primary qHTS assay for Inhibitors of ovarian cancer metastasis using an organotypic tumor microenvironment (TME) model. Also: nearly all actives have a fitted effect of over 65% in size.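 As to activity change, negative = inhibition: plate controls were DMSO wells for no effect and tomatine positive control wells for full effect.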 The conditions noted are these: SKOV3ip1-GFP adhesion/invasion on 3D omental model, fluorescence; series mostly up to 45.8 µM; activity change, negative = inhibition: at the top concentration. In outline:
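qHTS, 4-pt dose (0.36-46 umol/L); SKOV3ip1-GFP, 1,200 cells/well, no FBS; primary omental fibroblast/mesothelial co-culture 48 h pre-grown; 2 h RT + 16 h 37 C; PBS wash, 4% PFA; GFP count 488/509 nm.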
As for `CCNC(=O)CC1C(=O)N(c2ccc(F)cc2)C(=O)N1Cc1ccc(OC)c(OC)c1` (stereo unspecified), the compound was classed as inactive.
Regarding `CCOc1ccccc1NC(=O)CN1C(=O)CC(c2ccco2)Sc2ccccc21` (stereo unspecified), the “activity change, negative = inhibition” value was inactive: 2.18%.
The same measure, in the same setting: the figure for `Cc1cc(C)cc(C(=O)N(Cc2nc(-c3ccc(Cl)cc3)no2)C(C)C)c1` is inactive: -28.3%; for `Cc1cc(NC(=O)CCCn2c(C)c3cnn(-c4ccccc4)c(=O)c3c2C)ccc1Br` it is inactive: 16.9%; for `O=S(=O)(c1ccc2ccccc2c1)n1nc(-c2ccco2)nc1NCc1ccc(F)cc1` it is inactive: -4.75%.
`COCCCNC(=O)c1c(NC(=O)c2nc(S(C)(=O)=O)ncc2Cl)sc2c1CCCC2`: the “activity change, negative = inhibition” value is inactive: -3.45%.
Regarding `Cc1ccc(C(=O)Nc2ccc(-c3nc4ccccc4s3)c(O)c2)c(C)c1`, the “activity change, negative = inhibition” value was inactive: -7.17%.
With `COC(=O)c1ccc(OCC(O)Cn2cnc3cc(C)c(C)cc32)cc1` (stereo unspecified), the “activity change, negative = inhibition” value was inactive: 2.45%.
Still for that read-out and setting: the figure for `CCN(C(=O)CSc1ncc(S(=O)(=O)c2ccc(C)c(Cl)c2)c(=O)[nH]1)c1cccc(C)c1` is inactive: 7.42%; for `COCCNC(=O)C(=O)NCC(c1ccc2c(c1)OCO2)N1CCOCC1` (stereo unspecified) it is inactive: -21.8%.
Still for that read-out and setting: the value for `Cc1ccc(CNC(=O)c2cnc(N(C)C)nc2)cc1` was inactive: -5.67%.
On to `Cc1cc(NC(=O)c2ccc(-c3ccc(Cl)cc3)o2)cc(-c2nc3ncccc3o2)c1O`, for which the outcome was inactive.
As for `CCCCN(C)CCNC(=O)c1cc(=O)[nH]c2ccc(S(=O)(=O)N3CCCCCC3)cc12`, the “activity change, negative = inhibition” value is inactive: -2.14%.
The same measure, in the same setting: the figure for `Cc1ccc(NC(=O)CS(=O)(=O)c2nc(-c3ccc(C)cc3)cn2-c2ccc(C)cc2)cc1` is inactive: 5.23%.
On the same count and under the same terms, the value for `COc1ccc(-c2nc(C(=O)Nc3cccc(C(C)=O)c3)nn2-c2ccc(Cl)cc2)cc1` was inactive: 5.24%.
In the case of `COc1ccc(NC(=O)c2oc3ccccc3c2NC(=O)c2cc(=O)c3c(C)cc(C)cc3o2)cc1`, the “activity change, negative = inhibition” value was inactive: -0.148%.
Same read-out and setting: the figure for `Cc1ccc(NC(=O)c2ncn(-c3ccccc3)n2)cc1Cl` is inactive: -5.15%.
Take `Cc1nc(-n2nc(C)c(Cc3ccccc3Cl)c2C)sc1C(=O)N1CCCCC1C` (stereo unspecified): the “activity change, negative = inhibition” value was inactive: 0.0491%.
For `COc1ccc(OC)c(Nc2nc3ccccc3n3c(C)nnc23)c1`, the “activity change, negative = inhibition” value is inactive: 1.62%.
On to `CCOc1ccccc1NC(=O)CC1C(=O)NCCN1C(=O)c1ccc(F)cc1` (stereo unspecified), for which the call was inactive.
Regarding `COc1ccc(COC(=O)c2[nH]c3c(c2C)C(=O)CC(c2ccc(OC)c(OC)c2)C3)cc1` (stereo unspecified), the result was inactive.
For `C#CC(C)(CC)NC(=O)Cn1nnc(-c2ccc(OCc3ccccc3F)cc2)n1` (stereo unspecified), the “activity change, negative = inhibition” value was inactive: 0.821%.
The same measure, in the same setting: the value for `O=C(Nc1cc(-c2nc3cc(Cl)ccc3o2)ccc1Cl)c1cccs1` was inactive: 61.9%; that for `O=C(CSc1nnc(CNC(=O)c2c(F)cccc2Cl)o1)Nc1ccccc1F` was inactive: 3.64%.
Same read-out and setting: the figure for `CCC(=O)N1c2ccccc2CC1C(=O)NCc1ccccc1C` (stereo unspecified) is inactive: 6.58%; for `COc1ccc(OC)c(NC(=O)c2cc3c(s2)-c2ccccc2SC3)c1` it is inactive: -6.22%.
The same measure, in the same setting: the figure for `Cc1c(NS(=O)(=O)c2cccc(C(=O)O)c2)c(=O)n(-c2ccccc2)n1C` is inactive: -3.52%.
`COc1ccccc1-c1c(C)nn2c(N3CCN(c4cccc(Cl)c4)CC3)cc(C)nc12`: the “activity change, negative = inhibition” value is inactive: 11.1%.
With `COCCCNC(=O)c1cc2n(n1)CCCN(Cc1ccc(C)cc1)C2=O`, the “activity change, negative = inhibition” value was inactive: -1.79%.
On the same count and under the same terms, the value for `CC(=O)SC[C@@H](C)C(=O)N1CCC[C@H]1C(=O)N[C@@H](Cc1ccccc1)C(=O)O` was inactive: -4.46%; that for `CNc1nc(Oc2ccc(=O)n(C)n2)nc(N2CCOCC2)n1` was inactive: -15.6%.
The same measure, in the same setting: the figure for `COc1cccc(Cn2nnc3c(=O)[nH]c(C4CCCN(C(=O)c5ccc(C)cc5)C4)nc32)c1` (stereo unspecified) is inactive: -1.1%.
As for `Cc1ccc(C)c(NS(=O)(=O)c2ccc3c4c(cccc24)C(=O)N3)c1`, the compound was called inactive.
Same read-out and setting: the value for `CC1=C(C(=O)OCc2ccc(C)cc2)C(c2c(Cl)cccc2Cl)CC(=O)N1` (stereo unspecified) was “inactive”.
For the compound `CS(=O)(=O)c1ncc(N(Cc2ccco2)Cc2ccco2)c(C(=O)Nc2ccccc2Br)n1`, the “activity change, negative = inhibition” value was inactive: 44%.
In the case of `Cc1ccc(-n2ncc(C(=O)NC3CCCC3)c2C2CCN(C(=O)OC(C)(C)C)CC2)c(C)c1`, the “activity change, negative = inhibition” value is inactive: 4.79%.
Same read-out and setting: the figure for `CCc1nc2nc(C)cc(Nc3ccc(OC)cc3)n2n1` is inactive: 1.59%.
Same read-out and setting: the value for `COc1cccc(CN(Cc2ccco2)c2cnc(S(C)(=O)=O)nc2C(=O)Nc2cccc(Cl)c2C)c1` was inactive: -0.54%; that for `Cn1c(SCC(=O)N2CCCc3ccccc32)ncc(C(=O)Nc2ccc(Cl)cc2)c1=O` was inactive: -0.714%; that for `CSCCC(NS(=O)(=O)c1ccc2c(c1)oc(=O)n2C)C(=O)NCCc1ccc(C)cc1` (stereo unspecified) was inactive: 10.8%.
On the same count and under the same terms, the figure for `CCS(=O)(=O)N1CCC(C(=O)NCCC(C)C)CC1` is inactive: 0.296%; for `Cc1ccc(-c2nnc(Nc3cccc(Cl)c3)c3ccccc23)cc1S(=O)(=O)NCC1CCCO1` (stereo unspecified) it is inactive: -6.81%.
Turning to `CN(C1CCCCC1)S(=O)(=O)c1ccc2c(c1)c(=O)c(C(=O)NCCc1ccc(Cl)cc1)cn2C`, the compound was classed as inactive.
`Cc1ccc(S(=O)(=O)c2cnc(SCC(=O)Nc3ccc4c(c3)OCCO4)[nH]c2=O)cc1`: the “activity change, negative = inhibition” value is inactive: -1.02%.
With `CCOc1cc(C(=O)Nc2cccc(-c3nc4ccccc4o3)c2)cc(OCC)c1OCC`, the compound was called inactive.
Same read-out and setting: the entry for `CC(=O)Nc1ccc(S(=O)(=O)NC2(C(F)(F)F)NC(=O)N(c3ccc(C)cc3)C2=O)cc1` (stereo unspecified) is “inactive”.
In the case of `O=C(c1cccc([N+](=O)[O-])c1)N1c2ncnn2C2(CCCCC2)[C@@H]2CCCC[C@@H]21`, the “activity change, negative = inhibition” value was inactive: 0.0919%.
With `COc1cccc(OCCCCn2c(-c3ccc(Cl)cc3)nc3ccccc3c2=O)c1`, the “activity change, negative = inhibition” value is inactive: -0.245%.
With `Cc1ccc(-c2onc(C)c2C)cc1S(=O)(=O)NCc1ccco1`, the “activity change, negative = inhibition” value was inactive: 5.74%.
On the same count and under the same terms, the figure for `O=S(=O)(NCCSc1nnnn1-c1ccccc1)c1ccc(F)cc1` is inactive: 2.47%.
Still for that read-out and setting: the figure for `CCCN(CCC)C(=O)CSc1nnc2cc(C)c3cc(C)cc(C)c3n12` is inactive: 31.2%.
Turning to `CCN(CC)c1ccc(NC(=O)CSc2nnc(C)c(=O)[nH]2)cc1`, the result was inactive.
On to `CCOC(=O)c1c(C)oc2nc(C)nc(NCc3ccccc3Cl)c12`, for which the “activity change, negative = inhibition” value is inactive: -7.55%.
Still for that read-out and setting: the value for `COC(=O)c1ccccc1NC(=O)Cn1cc(S(=O)(=O)Cc2ccccc2F)c2ccccc21` was inactive: -11.2%; that for `Cc1ccc2cccc(NC(=O)COc3ccccc3[N+](=O)[O-])c2n1` was inactive: 1.43%.
Still for that read-out and setting: the value for `CCCCc1ccc(-n2nc3cc(C)c(NC(=O)Cc4ccccc4)cc3n2)cc1` was inactive: 20.6%; that for `Cc1ccc(S(=O)(=O)c2cnc(SCC(=O)Nc3cc(C)cc(C)c3)nc2N)cc1` was inactive: 34.6%.
On the same count and under the same terms, the figure for `Cc1cccc(OCc2ccc(-c3nc(C#N)c(NCCN(C)C)o3)o2)c1` is inactive: -16.3%; for `COc1ccc2c(c1)c1c(c(=O)n(-c3ccccc3C)c(=O)n1CC(=O)NCc1ccc(C)cc1)n2C` it is inactive: -6.58%.
For `Cc1cc(Nc2ccc(C)c(C)c2)n2cnnc2n1`, the call was inactive.
As to `COCCN1C(=O)c2[nH]nc(-c3ccccc3O)c2C1c1ccc(OCc2ccccc2)c(OC)c1` (stereo unspecified), the call was inactive.
